# Test results as given in the supplement of paper PMC7826260.
# This is one part of the list. The data describe in vitro nicking of single-stranded DNA by Rep domains for 1 h at 37 °C with 3 µM enzyme; only the middle of the 90-letter strands is printed. A value is the log2 ratio of uncut reads to the pool without enzyme; the lower, the more was cut; hits are not called. Reads are scaled to the total; where an enzyme cuts many sequences, the uncut ones exceed 0.
# Experiments:
# Test in all cases: uncleaved DNA left, log2 of reads against the no-enzyme library (log2 ratio); higher = less cleavage (more negative = more Rep cleavage of the k-mer); sequences stand for … in CTCGTCCG…ACCGGAGA
# [1] = test system: T1, Rep nickase domain of Muscovy duck circovirus
# T1 sequence (residues 1-111 of Rep, tag left off): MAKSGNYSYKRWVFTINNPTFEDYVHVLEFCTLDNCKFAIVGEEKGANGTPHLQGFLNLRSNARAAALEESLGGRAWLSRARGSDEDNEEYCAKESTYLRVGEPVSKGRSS
# Protocol: (§1)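 A pool of 90-nt single-stranded DNAs with seven random bases just before the constant AC of the nick site (name = the seven bases) was cut by 3 µM recombinant His6-SUMO-tagged Rep nickase domain (300 nM DNA, 50 mM HEPES pH 8.0, 50 mM NaCl, 1 mM MnCl2, 1 h, 37 °C, three replicates). Uncut DNA was amplified and sequenced.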
# [2] = test system: T2, Rep nickase domain of banana bunchy top virus
# T2 sequence (residues 1-94 of Rep, tag left off): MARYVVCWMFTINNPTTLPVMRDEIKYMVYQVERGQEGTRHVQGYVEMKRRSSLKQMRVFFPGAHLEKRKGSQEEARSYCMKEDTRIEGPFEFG
# Protocol: as §1
# [3] = test system: T3, Rep nickase domain of cabbage leaf curl virus
# T3 sequence (residues 1-116 of Rep, tag left off): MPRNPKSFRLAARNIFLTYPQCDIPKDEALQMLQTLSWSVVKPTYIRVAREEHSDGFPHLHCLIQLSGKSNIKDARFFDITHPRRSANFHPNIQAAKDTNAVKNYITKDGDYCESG
# Protocol: as §1
# [4] = test system: T4, Rep nickase domain of chickpea chlorotic dwarf virus
# T4 sequence (residues 1-124 of Rep, tag left off): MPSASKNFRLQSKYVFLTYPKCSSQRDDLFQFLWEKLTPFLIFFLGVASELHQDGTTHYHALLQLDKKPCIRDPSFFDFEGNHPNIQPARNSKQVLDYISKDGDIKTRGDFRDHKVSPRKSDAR
# Protocol: as §1
# [5] = test system: T5, Rep nickase domain of faba bean necrotic yellows virus
# T5 sequence (residues 1-98 of Rep, tag left off): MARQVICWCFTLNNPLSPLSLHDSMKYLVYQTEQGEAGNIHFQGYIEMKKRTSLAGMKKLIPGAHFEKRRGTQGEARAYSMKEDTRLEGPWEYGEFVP
# Protocol: as §1
# [6] = test system: T6, Rep nickase domain of maize striate mosaic virus
# T6 sequence (residues 1-117 of Rep, tag left off): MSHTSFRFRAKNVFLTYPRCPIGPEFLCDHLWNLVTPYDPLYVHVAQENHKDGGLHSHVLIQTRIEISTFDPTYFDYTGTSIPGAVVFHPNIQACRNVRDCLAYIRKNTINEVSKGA
# Protocol: as §1
# [7] = test system: T7, Rep nickase domain of porcine circovirus 2
# T7 sequence (residues 2-116 of Rep, tag left off): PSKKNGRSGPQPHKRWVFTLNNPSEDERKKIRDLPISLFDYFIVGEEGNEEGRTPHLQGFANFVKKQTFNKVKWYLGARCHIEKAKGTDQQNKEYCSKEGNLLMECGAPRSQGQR
# Protocol: as §1
# [8] = test system: T8, Rep nickase domain of tomato golden mosaic virus
# T8 sequence (residues 1-124 of Rep, tag left off): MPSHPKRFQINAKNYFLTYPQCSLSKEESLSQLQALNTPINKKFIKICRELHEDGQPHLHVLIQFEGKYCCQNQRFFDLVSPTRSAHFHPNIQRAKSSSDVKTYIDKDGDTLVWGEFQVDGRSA
# Protocol: as §1
# [9] = test system: T9, Rep nickase domain of tomato yellow leaf curl virus
# T9 sequence (residues 1-136 of Rep, tag left off): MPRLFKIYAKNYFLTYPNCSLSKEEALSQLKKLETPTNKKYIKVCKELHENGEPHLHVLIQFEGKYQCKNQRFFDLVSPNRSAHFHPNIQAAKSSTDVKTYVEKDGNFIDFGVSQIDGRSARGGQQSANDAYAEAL
# Protocol: as §1
# [10] = test system: T10, Rep nickase domain of wheat dwarf virus
# T10 sequence (residues 1-137 of Rep, tag left off): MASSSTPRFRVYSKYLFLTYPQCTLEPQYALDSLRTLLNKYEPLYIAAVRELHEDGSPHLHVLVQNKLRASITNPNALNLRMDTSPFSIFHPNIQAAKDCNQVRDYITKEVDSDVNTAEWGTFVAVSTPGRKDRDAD
# Protocol: as §1
Sequence,uncleaved DNA left (log2) [1],uncleaved DNA left (log2) [2],uncleaved DNA left (log2) [3],uncleaved DNA left (log2) [4],uncleaved DNA left (log2) [5],uncleaved DNA left (log2) [6],uncleaved DNA left (log2) [7],uncleaved DNA left (log2) [8],uncleaved DNA left (log2) [9],uncleaved DNA left (log2) [10]
TTGGCGA,-0.0409,-0.167,-0.75,-0.181,-0.0466,-0.8,0.0936,-0.234,-0.116,-0.227
GCAATAC,-0.0821,0.0839,0.0373,0.0567,0.0436,-0.212,0.168,0.0498,-0.000197,-0.023
AAGTCCA,-0.0591,-0.119,0.0412,-1.84,-0.148,0.0517,-2.85,0.00963,-0.00903,-0.044
ACCGTTT,-0.25,-0.134,-0.347,-1.83,-0.0925,-0.661,-0.0865,-0.0717,-0.235,-0.22
GTCATTG,-0.0469,0.0862,0.239,0.732,-0.0232,1.35,0.0838,0.105,0.0152,0.0401
TAGTTAT,-1.83,-2.57,-1.09,-2.25,-1.31,0.43,-3.97,-0.0688,0.0348,-0.129
CGAGCCG,0.00966,-0.133,-0.702,-0.541,-0.09,-0.885,0.0564,-0.126,-0.0364,-0.207
TGGTGGC,-0.0653,-0.168,0.376,0.531,-0.0158,0.487,0.151,-0.00466,-0.0437,-0.0123
CAGAACT,-0.146,-1.63,-0.426,-2.99,-0.518,-0.518,-3.45,-0.0646,-0.215,-0.138
AACCGGC,-0.0625,-0.12,-0.162,-0.262,-0.0647,-0.794,-0.0424,-0.0483,-0.12,-0.178
CTTGTTG,0.0138,0.0467,-0.71,-0.696,0.0685,-1.15,0.0568,-0.122,-0.0056,-0.298
ATACGAA,0.0587,-0.0115,-0.0427,-0.459,0.0935,-0.687,0.167,0.0776,-0.0165,0.0925
ATAGGGC,0.0352,-0.102,0.00647,0.436,-0.0728,-0.23,-0.00594,-0.0712,-0.133,-0.149
AGAGTGT,0.0466,-0.087,0.0674,0.338,0.0486,0.281,0.0608,0.221,0.0142,0.029
CTTCGGG,0.0693,0.0288,-0.183,-0.0846,-0.00462,-0.743,0.105,0.0446,0.0347,0.00111
GGCTCCA,0.0539,0.0593,0.221,0.525,0.0424,0.924,0.084,0.0465,0.16,0.236
GTCGGCT,0.00192,-0.112,0.164,0.624,-0.0784,0.92,0.0257,-0.103,-0.0531,0.0192
GCGACAC,0.0629,0.0563,0.343,0.993,0.12,1.47,0.0874,0.127,0.0353,0.133
TAGCTTG,-0.0136,-0.0808,0.0723,0.393,-0.134,0.668,-0.00867,-0.104,-0.133,0.0107
GCTATAC,-0.0226,0.041,0.183,0.229,0.059,-0.0419,0.0856,-0.0264,-0.00723,-0.042
GCAATCG,0.042,0.0672,-0.79,-0.294,0.00898,-0.941,0.166,0.0155,-0.0313,-0.13
TGAGGTA,0.139,0.201,0.47,1.08,0.155,1.49,0.229,0.253,0.0876,0.188
CATAGAG,0.0301,-0.0403,-0.673,-0.389,0.167,-1.05,0.267,0.08,0.0686,0.0333
CACCAGA,-0.143,-0.139,-0.389,-1,-0.108,-1.15,-0.147,-0.127,-0.133,-0.157
CCTCGTT,-0.0794,-0.21,-0.331,-1.59,-0.175,-0.727,-0.414,-0.17,-0.33,-0.153
CAATTAG,0.122,0.101,-0.769,-0.00344,0.165,-0.951,0.2,-0.00873,0.164,-0.0517
TCTTCCC,-0.0814,-0.0964,-0.00725,-0.387,-0.243,-0.502,-0.238,-0.25,-0.0862,-0.0316
ACAGTCG,0.0205,-0.0651,-0.474,0.954,0.00702,0.181,0.22,-0.0535,0.00229,-0.0399
TTGCCCT,-0.792,-0.465,-0.323,-1.67,-0.00114,-0.885,-2.39,-0.248,0.0585,-0.0316
CACCCAA,0.0257,-0.0695,-0.0793,-1.07,0.0577,-0.685,-0.402,-0.0425,-0.12,0.0423
